According to PubChem BioAssay AID2675 (National Center for Advancing Translational Sciences (NCATS), 2010):
The whole screen tested about 280,000 compounds, of which about 100 (0.036%) were called active. Inconclusive results, whose numbers are uncertain, are shown with a selection of clear calls. Calls come from the whole dose curve; as a rule, active = well fitted inhibition curve with a large enough effect in the signal ratio, with a control signal flat (not every such curve was filed as active); inconclusive = small, poorly fitted or top-dose-only effect, or effect the other way, or a change in a side signal; inactive = no such curve, though single readings can be large or run the other way; the % refers to the signal ratio. Where the call is inconclusive, the potency comes from a doubtful curve fit. A note “side channel” means that the fit belongs to a control or component signal, not to the main read-out.

Target: Muscleblind-like protein 1 (Homo sapiens) (UniProt Q9NR56)
Test: qHTS Assay for Inhibitors of MBNL1-poly(CUG) RNA binding
Details: TR-FRET MBNL1-His/biotin-(CUG)12 binding, 665/545 ratio; series mostly up to 57.5 µM
Outline: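 TR-FRET between His-tagged MBNL1 and biotin-(CUG)12 RNA, detected with Tb anti-His antibody (0.055 ng/ul) and streptavidin-XL665 (5 nM), 60 min at room temperature. Compounds titrated 92 nM to 58 uM; 665/545 nm ratio normalized to buffer and complex controls.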
Potency is the fitted concentration of half-maximal effect; tags give direction and shape of the fitted curve or compound fluorescence and quenching.

Chain of UniProt Q9NR56 (Q9NR56 whole entry, looked up): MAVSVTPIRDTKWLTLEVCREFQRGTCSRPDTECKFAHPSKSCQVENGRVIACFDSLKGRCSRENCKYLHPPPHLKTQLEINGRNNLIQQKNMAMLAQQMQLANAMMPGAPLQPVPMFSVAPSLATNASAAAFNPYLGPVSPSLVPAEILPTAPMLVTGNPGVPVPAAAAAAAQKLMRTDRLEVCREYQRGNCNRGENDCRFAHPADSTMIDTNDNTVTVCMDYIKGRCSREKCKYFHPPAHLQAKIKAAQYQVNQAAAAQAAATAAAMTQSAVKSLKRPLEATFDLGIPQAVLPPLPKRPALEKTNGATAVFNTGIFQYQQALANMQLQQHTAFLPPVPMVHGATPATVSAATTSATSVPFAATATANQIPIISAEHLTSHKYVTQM

| SMILES | Potency |
| --- | --- |
| O=S(=O)(c1ccc(NC(=S)N/N=C/c2c3ccccc3cc3ccccc23)cc1)N1CCOCC1 | inconclusive: 15.8 µM [quencher, side channel, partial curve] |
| CC(C)C(=O)NC(c1ccco1)c1c(O)ccc2ccccc12 (stereo not given) | inactive |
| Nc1nc(NCC(=O)O)nc(NCc2ccccc2)c1[N+](=O)[O-] | inconclusive: 15.8 µM [quencher, side channel, partial curve] |
| CCn1cc(C(=O)NC2CCCCC2)c(=O)c2cc(S(=O)(=O)N(C)C)ccc21 | inconclusive: 39.8 µM [quencher, side channel, single point] |
| Cc1ccc(Nc2ccc(C(N)=O)cc2[N+](=O)[O-])cc1C | inconclusive: 2.82 µM [quencher, full curve] |
| O=C(O)c1cc(Cl)c(Cl)cc1C(=O)Nc1cccc2cccnc12 | inconclusive: 200 µM [inhibitor, partial curve] |
| O=C(CNC(=O)c1ccccc1Cl)N/N=C/c1ccc([N+](=O)[O-])s1 | inconclusive: 3.55 µM [quencher, side channel, partial curve] |
| Cc1[nH]n(-c2ccccc2)c(=O)c1CCO | inactive |
| COC(=O)CCC(=O)NNC(=O)c1ccc([N+](=O)[O-])cc1 | inconclusive: 14.1 µM [quencher, side channel, partial curve] |
| CC(C)(C)c1ccc(CNc2ccc([N+](=O)[O-])cn2)cc1 | inconclusive: 39.8 µM [quencher, side channel, single point] |
| CCCCC(=O)Nc1nc2ccc(C(=O)OC)cc2s1 | inconclusive: 35.5 µM [fluorescent, single point] |
| N#CCCN(C(=S)NC(=O)c1ccco1)c1ccccc1F | inactive |
| Cc1cc(=O)n(C2CCS(=O)(=O)C2)[nH]1 (stereo not given) | inconclusive: 79.4 µM [inhibitor, partial curve] |
| CCn1c(NC(=O)C2CCCCC2)nc2ccccc21 | inconclusive: 79.4 µM [inhibitor, single point] |
| CCc1n[nH]c(=S)n1/N=C/C(C)=C\c1ccccc1 | inactive |
| O=[N+]([O-])c1ccc(/C=[N+](\[O-])CCO)o1 | inconclusive: 3.55 µM [quencher, side channel, full curve] |
| CCOc1ccc(/C=C/C(=O)c2ccc(-c3ccccc3)cc2)cc1 | inconclusive: 8.91 µM [fluorescent, side channel, partial curve] |
| O=C(Cn1cnc([N+](=O)[O-])n1)N/N=C/c1cccc(Cl)c1 | inconclusive: 28.2 µM [quencher, side channel, single point] |
| Nc1n[nH]c2c1C1(CCCC1)Cc1ccccc1-2 | inactive |
| COCCCNC(=S)NNC(=O)Cn1nc(C)c(Br)c1C | inconclusive: 0.1 µM [fluorescent, side channel, partial curve] |

| SMILES | Potency |
| --- | --- |
| Cc1cc(N(C)C)ccc1[N+](=O)[O-] | inconclusive: 25.1 µM [quencher, side channel, partial curve, poor fit] |
| COc1ccccc1-c1cc(C(=O)Nc2cccnc2Cl)no1 | inconclusive: 4.47 µM [fluorescent, side channel, partial curve] |
| CC(=O)Nc1cc[n+](CC(=O)c2cccc([N+](=O)[O-])c2)cc1 | inconclusive: 28.2 µM [quencher, partial curve] |
| Cc1cc(N2CCN(C(=O)/C=C/C(=O)O)CC2)c2ccccc2n1 | inconclusive: 39.8 µM [quencher, side channel, single point] |
| CC(C)C1=CC(=NS(=O)(=O)c2cccc([N+](=O)[O-])c2)C=C(C(C)C)C1=O | inconclusive: 28.2 µM [quencher, side channel, partial curve] |
| COc1cccc2cc(C(=O)NC(C)c3ccccc3)c(=O)oc12 (stereo not given) | inconclusive: 3.98 µM [quencher, side channel, single point] |
| CCOc1ccc(-c2nc(CSc3nnc(C)s3)cs2)cc1OC | inconclusive: 28.2 µM [quencher, side channel, single point] |
| O=C(NN1C(=O)c2ccccc2NC1c1ccco1)c1ccc([N+](=O)[O-])cc1 (stereo not given) | inconclusive: 25.1 µM [quencher, side channel, partial curve] |
| Cc1ccc(N=Nc2c(=O)[nH]n3c(=O)cc(C)[nH]c23)cc1 | inconclusive: 14.1 µM [quencher, partial curve] |
| O=C(NCc1ccccc1)OCCN1CCN(Cc2ccccc2)CCC1=O | inconclusive: 0.794 µM [inhibitor, full curve, poor fit] |
| O=[N+]([O-])c1ccc(O)c(/C=N/n2cnc3ccccc32)c1 | inconclusive: 28.2 µM [quencher, side channel, single point] |
| COc1ccc(OCC(=O)NCCC2=CCCCC2)c([N+](=O)[O-])c1 | inactive |
| Cc1ccc2c(c1)N(CC(=O)NCc1cccnc1)C(=O)CO2 | inconclusive: 6.31 µM [quencher, side channel, single point] |
| CN(c1ccc(C(=O)Nc2ccc(Cl)cn2)cc1)S(=O)(=O)c1ccccc1 | inactive |
| COC(=O)CSc1n[nH]c(=S)s1 | inactive |
| O=C(Nc1ccccc1Cl)C1CC(=O)N(c2ccccc2)C1 (stereo not given) | inactive |
| CN(C)CCNC(=O)/C=C/c1cn(-c2ccccc2)nc1-c1cc2ccccc2oc1=O | inconclusive: 20 µM [quencher, side channel, partial curve] |
| Cc1ccc(OCc2nc3c4c(ncn3n2)-c2ccccc2CC42CCCC2)cc1 | inconclusive: 3.55 µM [quencher, side channel, partial curve] |
| O=C(O)c1ccccc1Sc1c([N+](=O)[O-])cc(C(F)(F)F)cc1[N+](=O)[O-] | inconclusive: 15.8 µM [quencher, side channel, partial curve] |
| O=C(O)c1ccccc1C(=O)Nc1ccc(Br)c2cccnc12 | inconclusive: 28.2 µM [quencher, side channel, single point] |
